{"source": "PubChem BioAssay AID1347165", "about": "(National Center for Advancing Translational Sciences (NCATS), 2019)", "note": "The whole screen tested about 220,000 compounds, of which about 5,700 (2.6%) were called active. Inconclusive results, whose numbers are uncertain, are shown with a selection of clear calls. The call rests on the fitted dose curve; in most records, active means well fitted inhibition curve with a large enough effect; inconclusive means small, poorly fitted or top-dose-only effect; inactive means no such curve, though single readings can be large or run the other way. Potencies beside an inconclusive call are fits to weak or partial responses and may not hold up. Potency means the concentration at half of the fitted maximal effect; tags describe the fitted curve by direction and shape."}
{"biological_target": "Lysine-specific demethylase 5B (Homo sapiens) (UniProt Q9UGL1)", "sequence (Q9UGL1 whole entry, looked up)": "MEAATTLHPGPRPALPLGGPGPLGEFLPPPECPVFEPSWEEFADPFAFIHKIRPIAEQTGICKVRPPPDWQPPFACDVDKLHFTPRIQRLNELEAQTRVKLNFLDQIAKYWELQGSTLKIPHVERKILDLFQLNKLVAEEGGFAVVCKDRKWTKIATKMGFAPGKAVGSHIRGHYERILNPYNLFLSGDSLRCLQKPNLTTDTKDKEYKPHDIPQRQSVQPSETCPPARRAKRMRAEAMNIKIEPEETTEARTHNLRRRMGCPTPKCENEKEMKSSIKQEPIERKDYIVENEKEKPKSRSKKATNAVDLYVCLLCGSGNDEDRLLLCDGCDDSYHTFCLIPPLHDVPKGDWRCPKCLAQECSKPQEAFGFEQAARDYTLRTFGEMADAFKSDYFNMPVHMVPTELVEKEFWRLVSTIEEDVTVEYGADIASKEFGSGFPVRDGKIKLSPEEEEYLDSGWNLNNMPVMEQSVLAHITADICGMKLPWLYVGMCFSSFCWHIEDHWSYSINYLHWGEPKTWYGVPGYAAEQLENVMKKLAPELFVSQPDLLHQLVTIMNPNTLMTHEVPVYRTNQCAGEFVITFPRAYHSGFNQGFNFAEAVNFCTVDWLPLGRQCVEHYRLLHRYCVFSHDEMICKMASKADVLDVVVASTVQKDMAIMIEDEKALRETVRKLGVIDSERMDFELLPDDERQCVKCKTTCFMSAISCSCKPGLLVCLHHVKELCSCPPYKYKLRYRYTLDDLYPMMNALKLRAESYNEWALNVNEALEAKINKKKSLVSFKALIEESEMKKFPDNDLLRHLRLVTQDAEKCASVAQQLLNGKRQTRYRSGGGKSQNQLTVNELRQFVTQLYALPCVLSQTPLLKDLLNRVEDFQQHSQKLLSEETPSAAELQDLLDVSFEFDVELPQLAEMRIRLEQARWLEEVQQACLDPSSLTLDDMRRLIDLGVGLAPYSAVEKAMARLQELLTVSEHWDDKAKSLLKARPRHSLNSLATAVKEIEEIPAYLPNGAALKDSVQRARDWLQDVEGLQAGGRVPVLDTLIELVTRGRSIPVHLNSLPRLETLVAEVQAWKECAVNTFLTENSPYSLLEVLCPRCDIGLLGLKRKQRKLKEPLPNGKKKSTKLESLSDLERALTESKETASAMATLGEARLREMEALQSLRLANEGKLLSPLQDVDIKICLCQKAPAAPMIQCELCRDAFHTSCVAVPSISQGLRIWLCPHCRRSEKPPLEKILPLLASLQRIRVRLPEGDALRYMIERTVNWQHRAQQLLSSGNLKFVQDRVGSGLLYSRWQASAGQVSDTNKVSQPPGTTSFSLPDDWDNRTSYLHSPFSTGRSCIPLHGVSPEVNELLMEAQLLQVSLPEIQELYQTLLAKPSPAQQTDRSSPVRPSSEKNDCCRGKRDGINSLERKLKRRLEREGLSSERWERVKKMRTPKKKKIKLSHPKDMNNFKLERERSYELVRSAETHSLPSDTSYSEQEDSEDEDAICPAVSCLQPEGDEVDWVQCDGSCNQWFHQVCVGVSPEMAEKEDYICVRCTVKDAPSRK", "assay": "Primary screen for KDM5B Histone Demethylases FDH-coupled qHTS; further: nearly all actives have a fitted effect of over 70% in size", "settings": "FDH-coupled NADH fluorescence (FDH is formaldehyde dehydrogenase); series mostly up to 57.7 µM", "how_it_was_run": "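qHTS format, multiple compound concentrations. Buffer 50 mM HEPES pH 7.5/0.01% Tween-20; 200 nM KDM5BΔAP final; 10 min compound preincubation; substrate-mix levels 12.5 µM peptide, 25 µM α-KG, 0.25 mM NAD⁺; 30 min RT; ΔRFU.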"}
{"molecule": "Cc1ccc(NC(=O)CCn2cnc3c2c(=O)n(C)c(=O)n3C)cc1Cl", "Potency": "inactive"}
{"molecule": "Cc1cccc(C)c1N1CC(O)=C(c2nc3ccccc3[nH]2)C1=N", "Potency": "inactive"}
{"molecule": "Nc1ccccc1C(=O)NCCN1CCNC1=O", "Potency": "inconclusive: 25.1 µM [inhibitor, partial curve, poor fit]"}
{"molecule": "O=C(Nc1cccc2ccccc12)O[C@@H]1CO[C@H]2[C@@H]1OC[C@@H]2NC(=O)c1cccs1", "Potency": "inconclusive: 25.1 µM [inhibitor, partial curve, poor fit]"}
{"molecule": "Cc1ccc(S(=O)(=O)NCc2c(C)nn(Cc3ccccc3)c2C)cc1", "Potency": "inactive"}
{"molecule": "Cc1[nH][nH]c(=O)c1C(c1cc(Br)ccc1O)c1c(C)[nH][nH]c1=O", "Potency": "inconclusive: 28.2 µM [inhibitor, single point]"}
{"molecule": "COc1ccc(-c2nc3c(c(=O)[nH]2)CCN(C(=O)NCC2CCCO2)C3)cc1", "note": "(configuration not stated)", "Potency": "inconclusive: 20 µM [inhibitor, partial curve, poor fit]"}
{"molecule": "CC(=O)NCC(=O)N1Cc2ccccc2CC2(CCCN2CC2CCCC2)C1", "note": "(configuration not stated)", "Potency": "inconclusive: 56.2 µM [inhibitor, partial curve, poor fit]"}
{"molecule": "Cc1cccc(CNc2ccccc2C(N)=O)c1", "Potency": "inconclusive: 28.2 µM [inhibitor, partial curve, poor fit]"}
{"molecule": "COc1ccc(NC(=O)CSC2=Nc3ccccc3C3=NC(Cc4ccccc4)C(=O)N23)cc1Cl", "note": "(configuration not stated)", "Potency": "inconclusive: 35.5 µM [inhibitor, single point]"}
{"molecule": "CNc1ccc(OC(F)(F)Cl)cc1", "Potency": "inconclusive: 1.78 µM [inhibitor, partial curve, poor fit]"}
{"molecule": "Cc1nn(C)cc1-c1cc(C(=O)O)c2ccccc2n1", "Potency": "inconclusive: 22.4 µM [inhibitor, partial curve, poor fit]"}
{"molecule": "CCCCN(CC)CCNC(=O)Cn1c(=O)c2cccn2c2cccnc21", "Potency": "inconclusive: 31.6 µM [inhibitor, partial curve, poor fit]"}
{"molecule": "O=C(O)C1=NOC2CN(Cc3ccc(F)c(F)c3F)CC12", "note": "(configuration not stated)", "Potency": "inactive"}
{"molecule": "Cc1oc2cc(OCC(=O)NC(C)c3ccco3)ccc2c(=O)c1Oc1ccccc1", "note": "(configuration not stated)", "Potency": "inconclusive: 28.2 µM [inhibitor, partial curve, poor fit]"}
{"molecule": "COc1ccc2c(c1)c(C(=O)N/N=C/c1ccc(Cl)cc1)c(C)n2C", "Potency": "inconclusive: 35.5 µM [inhibitor, single point]"}
{"molecule": "COc1cccc(NC(=O)c2ccc3c(c2)NC(C)(COc2ccccc2)CO3)c1", "note": "(configuration not stated)", "Potency": "inconclusive: 35.5 µM [inhibitor, partial curve, poor fit]"}
{"molecule": "CCCNC(=O)C(C)NC(=O)Cc1coc(-c2ccccc2)n1", "note": "(configuration not stated)", "Potency": "inactive"}
{"molecule": "O=C(NCc1cnc2c(c1)CCC2)C1NCCc2[nH]cnc21", "note": "(configuration not stated)", "Potency": "inconclusive: 8.91 µM [inhibitor, partial curve, poor fit]"}
{"molecule": "Cn1cc2c3c(cccc31)CN(C(=O)c1ccc(F)cc1Cl)CC2", "Potency": "inconclusive: 28.2 µM [inhibitor, single point]"}
{"molecule": "Cc1nnc2n1CCC(NC(=O)c1cc(CN3CCOCC3)on1)CC2", "note": "(configuration not stated)", "Potency": "inconclusive: 39.8 µM [inhibitor, single point]"}
{"molecule": "COc1ccc(C2C(C(=O)c3ccco3)=C(O)C(=O)N2CC2CCCO2)c(OC)c1", "note": "(configuration not stated)", "Potency": "inconclusive: 11.2 µM [inhibitor, partial curve, poor fit]"}
{"molecule": "O=C(CSc1nc(-c2ccco2)nc2ccccc12)N1CCCCCCC1", "Potency": "inconclusive: 20 µM [inhibitor, partial curve, poor fit]"}
{"molecule": "Cc1cc(NC(=O)NCC(c2ccc(C)o2)N2CCOCC2)no1", "note": "(configuration not stated)", "Potency": "inactive"}
{"molecule": "CCOc1ccc(Nc2nc(-c3ccccc3)c(C(=O)Nc3cccnc3)s2)cc1", "Potency": "inconclusive: 39.8 µM [inhibitor, single point]"}
{"molecule": "Cc1ccc(CN2CCC(C3CCNC3)CC2)nc1", "note": "(configuration not stated)", "Potency": "inactive"}
{"molecule": "COc1cccc(CNC(=O)c2cc3c(=O)n(C)c4ccccc4c3n2C)c1", "Potency": "inconclusive: 1.26 µM [inhibitor, partial curve, poor fit]"}
{"molecule": "Cc1ccc(CNC(=O)Cn2c(C)cc3ccccc32)cc1", "Potency": "inactive"}
{"molecule": "Cc1ccc(-c2nc3ccccc3o2)cc1NC(=O)c1cccs1", "Potency": "inconclusive: 22.4 µM [inhibitor, partial curve, poor fit]"}
{"molecule": "OCCCNC(=S)NCCc1ccccc1", "Potency": "inconclusive: 25.1 µM [inhibitor, partial curve, poor fit]"}
{"molecule": "CC1CCN(C(=O)CN2CCN(c3nc(C(C)C)c4c(c3C#N)CCC4)CC2)CC1", "Potency": "inconclusive: 28.2 µM [inhibitor, single point]"}
{"molecule": "COc1ccc(OC)c(CCNC(=O)c2ccc3[nH]c(C)c(C)c3c2)c1", "Potency": "inconclusive: 7.94 µM [inhibitor, partial curve, poor fit]"}
{"molecule": "Cc1ccc(N2CCC3(CCCN3Cc3ccc4nsnc4c3)CC2)nn1", "Potency": "inconclusive: 7.94 µM [inhibitor, partial curve, poor fit]"}
{"molecule": "CN1CC(=O)N(C2CCNCC2)Cc2c(NC3CCCCC3)ncnc21", "Potency": "inconclusive: 56.2 µM [inhibitor, partial curve, poor fit]"}
{"molecule": "CCN(CC)c1ccc(C=Nc2ccc(Nc3ccccc3)cc2)cc1", "Potency": "inconclusive: 12.6 µM [inhibitor, partial curve, poor fit]"}
{"molecule": "O=C(CC[C@@H]1CNC(=O)[C@@H]2C[C@H](NC(=O)Nc3ccccc3)CN12)NCc1ccccc1", "Potency": "inactive"}
{"molecule": "O=C(NCc1nnc2ccc(-c3ccc(Cl)cc3)nn12)c1cccc2[nH]ccc12", "Potency": "inactive"}
{"molecule": "COc1ccc(C(CNC(=O)c2nn(C)c(=O)c3ccccc23)N(C)C)cc1", "note": "(configuration not stated)", "Potency": "inactive"}
{"molecule": "CC(C)c1ccccc1NC(=O)/C=C/c1c(F)cccc1Cl", "Potency": "inactive"}
{"molecule": "COc1ccc(Br)cc1COc1ccc(C(C)=O)cc1OC", "Potency": "inactive"}
{"molecule": "CC(C)N(CCNC(=O)c1cc2cc(F)ccc2[nH]1)C(C)C", "Potency": "inconclusive: 39.8 µM [inhibitor, single point]"}
{"molecule": "CCCS(=O)(=O)N1CC[C@H]2C(=O)NCCCCCCN(Cc3ccncc3)[C@@H]2C1", "Potency": "inconclusive: 39.8 µM [inhibitor, single point]"}
